# Test results taken from publication PMC4336329 (PLoS ONE, 2015).
# Hit rate of the full screen: of about 310,000 compounds, about 2,200 (0.71%) showed an effect of 50% or more. The effect is printed as a negative number. The list shows a part of the results.
# Biological target: human ether-à-go-go-related gene (hERG) potassium channel (human, UniProt Q12809)
# Test: primary screen, population patch clamp on CHO cells stably expressing hERG
# Chain of human ether-à-go-go-related gene (hERG) potassium channel (Q12809 whole entry, looked up): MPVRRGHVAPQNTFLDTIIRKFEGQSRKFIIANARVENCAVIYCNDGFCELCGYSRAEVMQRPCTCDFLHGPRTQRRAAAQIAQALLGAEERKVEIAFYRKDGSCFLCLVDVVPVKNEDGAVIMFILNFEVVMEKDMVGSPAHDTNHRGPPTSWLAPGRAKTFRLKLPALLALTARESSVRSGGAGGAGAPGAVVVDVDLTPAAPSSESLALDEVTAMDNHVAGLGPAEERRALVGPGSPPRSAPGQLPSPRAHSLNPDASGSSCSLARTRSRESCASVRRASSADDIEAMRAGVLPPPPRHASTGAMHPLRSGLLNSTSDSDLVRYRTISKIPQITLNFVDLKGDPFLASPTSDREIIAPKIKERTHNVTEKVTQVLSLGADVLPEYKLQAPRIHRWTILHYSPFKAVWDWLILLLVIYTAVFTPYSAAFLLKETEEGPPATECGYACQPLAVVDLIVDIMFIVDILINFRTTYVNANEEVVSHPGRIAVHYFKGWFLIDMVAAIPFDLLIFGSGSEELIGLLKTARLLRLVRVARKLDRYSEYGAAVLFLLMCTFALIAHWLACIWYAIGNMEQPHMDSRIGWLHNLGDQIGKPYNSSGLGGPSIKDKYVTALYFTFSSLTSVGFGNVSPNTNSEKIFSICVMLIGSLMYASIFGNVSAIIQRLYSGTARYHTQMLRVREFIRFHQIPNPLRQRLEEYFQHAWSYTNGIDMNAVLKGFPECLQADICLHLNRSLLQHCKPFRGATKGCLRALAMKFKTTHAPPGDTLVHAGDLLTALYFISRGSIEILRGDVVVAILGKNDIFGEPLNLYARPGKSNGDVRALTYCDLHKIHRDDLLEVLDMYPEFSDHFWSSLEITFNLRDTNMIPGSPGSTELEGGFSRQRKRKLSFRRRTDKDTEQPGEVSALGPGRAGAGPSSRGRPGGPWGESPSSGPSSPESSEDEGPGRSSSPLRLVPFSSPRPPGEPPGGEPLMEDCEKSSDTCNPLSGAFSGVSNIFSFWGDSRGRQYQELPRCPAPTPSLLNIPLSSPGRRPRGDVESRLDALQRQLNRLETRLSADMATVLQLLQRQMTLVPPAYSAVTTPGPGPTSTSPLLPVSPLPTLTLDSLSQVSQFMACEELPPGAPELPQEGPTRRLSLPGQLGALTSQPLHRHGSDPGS
row,SMILES,"hERG current change (%, negative = inhibition) at 1uM [%]"
1,CCN(Cc1ccncc1)Cc1ccc(Br)cc1.O=C(O)C(=O)O,14
2,CN1C(=O)CC(P(=O)(c2ccccc2)c2ccccc2)N(C)C1=O (centres unmarked),10.5
3,CN(CC(=O)Nc1c(Cl)cccc1Cl)C(=O)c1ccccc1Cc1ccccc1,8.96
4,COc1ccc(CCNc2oc(-c3ccc(C)cc3)nc2C#N)cc1OC,14.2
5,CC(O)CN1C(=O)C(CC(=O)Nc2ccc(Cl)cc2)SC1=Nc1ccccc1 (centres unmarked),14.1
6,COC(=O)c1c(C)[nH]c(C(=O)C(C)OC(=O)C2CC(=O)N(c3ccc(C)cc3)C2)c1C (centres unmarked),2.54
7,O=C(COC(=O)Cc1ccc(S(=O)(=O)N2CCOCC2)s1)NCCc1ccccc1,-2.58
8,CN(C)CCNC(=S)NC1CCCCC1,14.2
9,CCCCC1(O)CC(C(F)(F)F)=NN1C(=O)COc1ccccc1 (centres unmarked),6.76
10,CCCOc1ccc(-c2c(C(=O)N/N=C/c3ccc(C)o3)nnn2-c2nonc2N)cc1,19.4
11,O=C(COC(=O)[C@@H]1CCCN1S(=O)(=O)c1ccc(Cl)cc1)NC1CC1,12.1
12,CC1(c2ccccc2Cl)NC(=O)N(CC(=O)Nc2ccc(N3CCCCC3)cc2)C1=O (centres unmarked),2.86
13,COc1ccc(/C=N/OCC(=O)Nc2nc3ccccc3s2)cc1OC,15.4
14,CCOc1ccc(-c2noc(CCC(=O)NC)n2)cc1OCC,2.24
15,COCCCNC(=O)c1c(N)n(Cc2ccco2)c2nc3ccccc3nc12,11.5
16,CC1Cc2cc(/C(O)=C3/C(=O)C(=O)N(Cc4ccco4)C3c3cccs3)ccc2O1 (centres unmarked),1.52
17,CC(CC(=O)N1CCN(c2cccc(Cl)c2)CC1)S(=O)(=O)c1ccc2c(c1)NC(=O)CO2 (centres unmarked),-23.8
18,O=C(O)CSc1nnc(-c2cc3ccccc3o2)n1-c1ccccc1,9.3
19,COc1ccc2c(c1OC)C(=O)OC2n1c(O)c(N=NC(C)=O)c2ccccc21 (centres unmarked),4.35
20,O=C(CSc1ccccn1)Nc1ccc(N2CCOCC2)cc1,8
21,CC(=O)Nn1c(C)nnc1-n1nc(C)cc1C,14
22,COc1cccc(/C=N/NC(=S)NCCc2ccccc2)c1OC,16.3

row,SMILES,"hERG current change (%, negative = inhibition) at 1uM [%]"
1,NC(=O)c1ccc(N=Nc2c(O)c3ccccc3[nH]c2=O)cc1,8.29
2,Cc1ccccc1NC(=S)c1nc2ccccc2[nH]1,12.5
3,O=C(O)C1CCCN1c1nc(-c2ccc(Cl)c(Cl)c2)cc(C(F)(F)F)n1 (centres unmarked),7.97
4,Cc1cccc(NC(=O)CN(C)S(=O)(=O)c2cccc3cccnc23)c1C,4.71
5,CCOC(=O)c1cc(CC)sc1NC(=O)CSc1nc2ccccc2c(=O)n1Cc1ccco1,3.44
6,CCC(C)NC(=O)c1nn(Cc2ccccc2)c(=O)c2ccccc12 (centres unmarked),10.8
7,Cc1cc([N+](=O)[O-])cnc1NC(C)c1ccccc1 (centres unmarked),7.3
8,CCCNC(=O)Cn1c(=O)n(CC(=O)N2CCCCC2)c(=O)c2sccc21,14.7
9,Nc1cccc2c1C(=O)N(Cc1nnc(-c3ccccc3Br)o1)C2=O,8.68
10,CCOC(=O)c1ccc(NC(=O)c2cccc(S(=O)(=O)N3CCN(C(C)=O)CC3)c2)cc1,10
11,CN(c1ccccc1)S(=O)(=O)c1ccc(Cl)c(C(=O)OCC(=O)N2CCOCC2)c1,-0.507
12,CCN(CC(=O)Nc1ccccc1OC)C(=O)/C=C/c1cccs1,2.76
13,CN(Cc1ccccn1)C(=O)CC1C(=O)NCCN1Cc1ccc(F)cc1Cl (centres unmarked),14.9
14,O=[N+]([O-])c1cccc(C(=Nc2ccccc2)NO)c1,0.619
15,C=CCN(CC=C)S(=O)(=O)c1ccc2nc(NC(=O)C(C)C)sc2c1,1.18
16,COc1ccccc1/C=C/CN1CCC(CO)(Cc2ccccc2)CC1,0.366
17,CN(C)N1C(N)=C(C#N)C(c2ccc(Br)cc2)C2=C1CC(C)(C)CC2=O (centres unmarked),16.5
18,O=[N+]([O-])c1ccc(O)c(/C=N/Nc2nn[nH]n2)c1,15.4
19,O=C(Nc1ccc(F)c(Cl)c1)c1cc(-c2ccco2)on1,8.91
20,O=S(=O)(c1ccc(-c2ccon2)s1)N1CCOCC1,10.6
21,CCOc1ccc(-n2c(=O)[nH]cc(C(=O)N3CCc4ccccc43)c2=O)cc1,11
22,S=c1[nH]nc(NCCCN2CCOCC2)s1,11.3

row,SMILES,"hERG current change (%, negative = inhibition) at 1uM [%]"
1,CC(C)(C)c1cc(N)n(-c2ccc(C(=O)O)cc2)n1,17
2,COc1cccc(NC(=O)c2ccc(CN3CCc4ccccc4C3)cc2)c1,3.46
3,Cc1ccc(CC2S/C(=N/N=C/c3ccco3)NC2=O)cc1 (centres unmarked),7.27
4,CCCS(=O)(=O)c1c(S(=O)(=O)CCC)c2c(N)cccn2c1C(=O)c1ccc(OC)cc1,9.6
5,Cc1cccc(-c2nc(C#N)c(NCC3CCCO3)o2)c1 (centres unmarked),6.99
6,CC(=O)c1ccc(NC(=O)C2CCN(S(=O)(=O)c3cccc4nonc34)CC2)cc1,4.65
7,CC1CCCC(NC(=O)CN2CCN(Cc3ccc(Cl)cc3)C2=O)C1C (centres unmarked),4.16
8,O=C(CN(C(=O)c1cccc([N+](=O)[O-])c1)C1CCCCC1)Nc1ccc(Cl)c([N+](=O)[O-])c1,-1.44
9,O=C(Nn1cnnc1)c1ccc(Cl)cc1[N+](=O)[O-],13.5
10,CN(Cc1cccc2ncccc12)C(=O)CC1C(=O)NCCN1Cc1ccc(F)cc1 (centres unmarked),9.92
11,COC(=O)c1cn(CC(=O)NCc2ccco2)c2ccccc12,6.68
12,Cc1ccc(S(=O)(=O)NCCc2c[nH]c3ccccc23)cc1,15.9
13,CCOC(=O)c1c(S(=O)(=O)N2CCCC(C(=O)Nc3ccc(C)cn3)C2)c(C)n(C)c1C (centres unmarked),20
14,CCOc1ccc2nc(N3CCCC(C(=O)NCC4CCCO4)C3)sc2c1 (centres unmarked),0.0745
15,CCOC(=O)c1nnn(CC(=O)Nc2cccc(OC)c2)c1C(=O)OCC,3.45
16,Cn1c(=O)cc2c3c(c(N4CCCCC4)ccc31)C(=O)c1ccccc1-2,6.23
17,O=c1c2ccccc2nc(-c2ccccc2F)n1-c1ccccc1,15.5
18,CC(C)NC(=O)Cn1cnc2c1c(=O)n(C)c(=O)n2C,18.6
19,Cc1nc2ccccc2n1C1CCN(CC(=O)NCc2ccc(F)cc2)CC1,-23.3
20,Cc1cc(=O)n2nc(N3CCCC3C(=O)NCCCN3CC(C)CC(C)C3)sc2n1 (centres unmarked),17.4
21,CC1CCCCC12NC(=O)N(CC(=O)Nc1ccc(S(=O)(=O)Nc3ncccn3)cc1)C2=O (centres unmarked),10.7
22,Oc1[nH]c2ccccc2c1N=Nc1ccccc1F,0.367

row,SMILES,"hERG current change (%, negative = inhibition) at 1uM [%]"
1,Cc1cccc(OCCN2C(=O)C(=O)c3cc(C)ccc32)c1,2.49
2,O=C(NC1CCCCC1)OCCN1CCN(Cc2ccccc2)CCC1=O,-1.5
3,CCOC(=O)C(C)Sc1ncc(OC)c(Sc2ccc(Cl)cc2)n1 (centres unmarked),5.4
4,COC(=O)C1=C(C(=O)OC)[C@@H]2N(Cc3ccccc3)c3ccccc3[C@@]23C[C@@H](C(=O)OC)N(C(=O)NC(C)(C)C)C3=N1,8.05
5,COc1ccccc1NC(=O)CC1C(=O)Nc2c1c(=O)n(C)c(=O)n2C (centres unmarked),12.3
6,CNC(=O)Nc1ccccc1NC(=O)NC,21.2
7,Cc1cc(C(=O)Nc2cnn(Cc3ccc(Cl)cc3Cl)c2)no1,-2.18
8,CC1Sc2ccc(C(=O)Nc3ccc(S(=O)(=O)N(C)C)cc3)cc2NC1=O (centres unmarked),-9.84
9,CC(=O)NS(=O)(=O)c1ccc(N=c2ssc3c2-c2ccc(C)cc2NC3(C)C)cc1,7.73
10,Cc1cccc(NC(=O)C2CCN(S(=O)(=O)c3cccc4cccnc34)CC2)c1,8.54
11,Cl.Nn1cnnc1N/N=C/c1cccc(Cl)c1Cl,12.8
12,CCC(C)NCCOc1ccc(Br)cc1.O=C(O)C(=O)O (centres unmarked),-0.813
13,CCCc1cc(=O)oc2c(CN3CCN(C)CC3)c(O)ccc12,-6.26
14,O=C1CN=C(c2ccccc2)c2cc(Br)ccc2N1Cc1cc(=O)n2ccccc2n1,4.2
15,COc1ccc(C(CCN(Cc2ccc(OC)c(OC)c2)C(=O)CCl)c2ccccc2)cc1 (centres unmarked),14.9
16,CCC1(c2ccccc2)NC(=O)N(CC(=O)Nc2ccc(OC)nc2)C1=O (centres unmarked),4.47
17,CC(=O)Nc1c(I)c(NC(C)=O)c(I)c(C(=O)[O-])c1I.[Na+],13.2
18,CCCCn1c(C)cc2cc(O)ccc21,-2.48
19,COc1cc(NC(=O)C2CCN(S(=O)(=O)c3ccc(N4CCCC4=O)cc3)CC2)cc(OC)c1,10.7
20,CCOc1ccc(OCC)c(NC(=O)C(NS(=O)(=O)c2ccc3c(c2)oc(=O)n3C)C(C)C)c1 (centres unmarked),8.84
